{
  "source": "patent US20240034764A1",
  "about": "(JOINT STOCK COMPANY BIOCAD, published 2024)",
  "binders": {"B1": {"name": "immunocytokine (fusion protein) based on IL-10 and human IgG1 Fc fragment of the invention (IL-10-Fc) (Fc fusion)", "chain": "[omitted - human IgG1 Fc with changes]GGSGGGPGSGGSPGQGTQSENSCTHFPGNLPNMLRDLRDAFSRVKTFFQMKDQLDNLLLKESLLEDFKGYLGCQALSEMIQFYLEEVMPQAENQDPDIKAHVNSLGENLKTLRLRLRRCHRFLPCENKSKAVEQVKNAFNKLQEKGIYKAMSEFDIFINYIEAYMTMKIRN", "notes": "Produced in CHO cells, purified on protein A; also called immunocytokine of the invention; immunocytokine based on IL-10 and Fc"}},
  "key": {"[1]": {"target": "T1, IL-10Rα receptor on MC/9 mouse mast cells (mouse, UniProt Q61727 17-575)", "T1 sequence (looked up)": "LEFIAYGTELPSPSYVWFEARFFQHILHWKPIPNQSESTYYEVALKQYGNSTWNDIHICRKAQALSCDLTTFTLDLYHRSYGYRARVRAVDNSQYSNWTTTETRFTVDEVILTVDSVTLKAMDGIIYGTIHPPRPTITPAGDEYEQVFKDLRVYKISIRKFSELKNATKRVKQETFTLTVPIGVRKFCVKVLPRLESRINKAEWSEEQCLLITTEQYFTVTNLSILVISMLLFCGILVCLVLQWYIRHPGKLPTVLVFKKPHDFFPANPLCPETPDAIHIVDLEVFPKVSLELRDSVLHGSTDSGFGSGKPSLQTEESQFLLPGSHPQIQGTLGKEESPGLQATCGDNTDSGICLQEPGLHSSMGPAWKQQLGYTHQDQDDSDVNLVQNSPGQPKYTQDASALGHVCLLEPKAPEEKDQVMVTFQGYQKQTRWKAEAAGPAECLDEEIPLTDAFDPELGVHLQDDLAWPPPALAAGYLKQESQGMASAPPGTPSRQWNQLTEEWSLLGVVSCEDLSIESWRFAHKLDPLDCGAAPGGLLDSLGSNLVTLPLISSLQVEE", "assay": "cell-based or functional assay"}, "[2]": {"target": "T2, extracellular portion of the Macaca cynomolgus (fascicularis) IL-10Ra receptor with EPEA tag (Macaca cynomolgus (fascicularis), UniProt A0A2K5WJ66 22-233)", "T2 construct": "extracellular domain; the same vector was used; also called cynomolgus IL-10Rα receptor; Cynomolgus IL-10 receptor", "T2 sequence": "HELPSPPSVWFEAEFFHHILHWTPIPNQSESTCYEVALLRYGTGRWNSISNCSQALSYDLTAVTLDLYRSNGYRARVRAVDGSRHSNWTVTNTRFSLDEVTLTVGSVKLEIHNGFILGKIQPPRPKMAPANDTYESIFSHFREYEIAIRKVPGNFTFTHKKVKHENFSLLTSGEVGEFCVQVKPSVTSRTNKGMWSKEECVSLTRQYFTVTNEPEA", "assay": "BLI (OctetRed96), IL-10-Fc immobilised on AR2G sensors, receptor in solution, 1:1 model", "method": "(§1) Binding of human IL-10-Fc of the invention to the human IL-10 receptor, as well as to the cynomolgus, murine and rabbit IL-10Rα receptors, was assessed by bio-layer interferometry using the OctetRed96 device (Pall). IL-10-Fc was bound to AR2G sensors according to the manufacturer's instructions for the preparation and immobilization of AR2G sensors. The sensors with immobilized IL-10 were then immersed into wells containing the human, macaque, murine or rabbit IL-10Rα receptor. Following the association of interleukin and the receptor, the sensors were immersed in the working solution for the subsequent dissociation stage. The resulting sensograms, after subtracting a reference signal, were analyzed using Octet Data Analysis software (Version 8.0) in accordance with the standard procedure and using 1:1 interaction model. According to the data obtained (Table 1), IL-10-Fc of the invention binds to the human, cynomolgus, murine IL-10 receptors."}, "murine IL-10Rα receptor": {"target": "T3, murine IL-10Rα receptor (murine, UniProt Q61727 17-241, limits assumed)", "T3 construct": "soluble protein in wells of the BLI assay, construct unknown; also called Murine IL-10 receptor", "T3 sequence (looked up)": "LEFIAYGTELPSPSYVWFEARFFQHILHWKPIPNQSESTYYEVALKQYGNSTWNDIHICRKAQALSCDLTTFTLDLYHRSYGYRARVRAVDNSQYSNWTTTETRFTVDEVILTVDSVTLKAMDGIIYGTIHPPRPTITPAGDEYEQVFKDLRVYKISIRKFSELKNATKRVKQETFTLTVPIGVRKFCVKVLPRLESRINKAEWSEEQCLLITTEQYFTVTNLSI", "assay": "BLI (OctetRed96), IL-10-Fc immobilised on AR2G sensors, receptor in solution, 1:1 model", "method": "as §1"}},
  "data": [
    {"binder": "B1", "values": [
      {"measurement": "half maximal effective concentration (EC50), proliferation of MC/9 cells in the presence of IL4 (Alamar Blue)", "setting": "[1]", "result": 53.3, "unit": "pM"},
      {"measurement": "Kd", "setting": "[2]", "result": 3.7, "unit": "nM"},
      {"measurement": "Kd", "setting": "murine IL-10Rα receptor", "result": 2.1, "unit": "nM"}
    ]}
  ]
}
